Assay results from PubChem BioAssay AID1645882 (National Center for Advancing Translational Sciences (NCATS), 2021).
Hit rate of the full screen: of about 16,000 compounds, about 120 (0.75%) were called active. Not shown: some 4% with an inconclusive outcome. The call rests on the fitted dose curve; in most records, active means well fitted inhibition curve with a large enough effect; inconclusive means small, poorly fitted or top-dose-only effect; inactive means no such curve, though single readings can be large or run the other way. The list shows a part of the results.

target: Rap guanine nucleotide exchange factor 3 (Homo sapiens) (UniProt O95398); assay: Validation qHTS for antagonist of cAMP-regulated guanine nucleotide exchange factor 3 (EPAC1); conditions: EPAC1 Rap1B-BODIPY-GDP exchange, fluorescence; activity change, negative = inhibition: at the top concentration;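 further: plate controls were DMSO for no effect and ATA control for full effect; nearly all actives have a fitted effect of over 75% in size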
Procedure, shortened: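 Nucleotide exchange followed as fluorescence loss when BODIPY-GDP leaves Rap1B (480 nm excitation, 540 nm emission), read at 5 min intervals over 30 min. Reaction: 100 nM EPAC1, 250 nM RAP1B-BODIPY-GDP, 50 uM GDP; ATA and DMSO define normalization.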

Chain of UniProt O95398 (O95398 whole entry, looked up): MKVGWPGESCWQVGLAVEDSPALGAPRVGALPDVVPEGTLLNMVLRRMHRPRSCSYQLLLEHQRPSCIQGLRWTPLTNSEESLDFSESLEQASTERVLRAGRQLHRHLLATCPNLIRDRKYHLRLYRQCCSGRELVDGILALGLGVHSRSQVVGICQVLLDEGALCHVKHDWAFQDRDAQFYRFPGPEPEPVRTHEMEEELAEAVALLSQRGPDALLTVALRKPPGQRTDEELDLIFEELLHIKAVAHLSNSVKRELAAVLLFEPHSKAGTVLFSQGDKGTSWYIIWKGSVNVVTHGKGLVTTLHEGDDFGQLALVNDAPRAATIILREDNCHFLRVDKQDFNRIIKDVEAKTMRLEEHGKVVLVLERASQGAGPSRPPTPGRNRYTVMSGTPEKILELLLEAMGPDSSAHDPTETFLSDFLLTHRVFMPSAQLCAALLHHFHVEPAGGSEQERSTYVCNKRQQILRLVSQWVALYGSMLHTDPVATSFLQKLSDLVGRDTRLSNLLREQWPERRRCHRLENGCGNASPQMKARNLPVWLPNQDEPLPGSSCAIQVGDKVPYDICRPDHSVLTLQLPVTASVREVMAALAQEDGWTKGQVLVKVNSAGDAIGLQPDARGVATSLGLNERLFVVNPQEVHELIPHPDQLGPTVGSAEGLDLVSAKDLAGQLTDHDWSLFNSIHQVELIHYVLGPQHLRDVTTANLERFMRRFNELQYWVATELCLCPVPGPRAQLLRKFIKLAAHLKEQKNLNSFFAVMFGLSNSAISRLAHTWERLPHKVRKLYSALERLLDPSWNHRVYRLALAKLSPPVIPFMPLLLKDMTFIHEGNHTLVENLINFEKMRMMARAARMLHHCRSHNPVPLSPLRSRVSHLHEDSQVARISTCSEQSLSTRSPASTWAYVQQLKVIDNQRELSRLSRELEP

Row | Compound | activity change, negative = inhibition
1 | NCCc1ccc(O)cc1 | inactive
2 | CN(CCc1ccc(Cl)c(Cl)c1)[C@@H]1CCCC[C@@H]1N1CCCC1 | inactive: 27.9%
3 | COc1ccc2c(c1)C13CCCC[C@@H]1C(C2)N(C)CC3 (stereo not given in full) | inactive: 13.5%
4 | C[C@@H]1[C@H](O)[C@@H](C)C=CC=CCCC=CC=CC=CC=C[C@H](O[C@H]2O[C@@H](C)[C@H](O)[C@@H](N)[C@@H]2O)CC2O[C@](O)(C[C@@H](O)[C@H](O)CC[C@@H](O)C[C@@H](O)C[C@@H](O)CC(=O)O[C@H]1C)C[C@H](O)[C@H]2C(=O)O | inactive: 21.5%
5 | CCc1cc(OC)c(C[C@H](C)N)cc1OC | inactive: 13.7% [at 320 µM]
6 | c1ccc(CCN2CCOCC2)cc1 | inactive: 17.7%
7 | N[C@@]1(C(=O)O)CC[C@@H](C(=O)O)C1 | inactive: 14% [at 75.8 µM]
8 | CN(C)C1C(=O)C(C(N)=O)=C(O)[C@@]2(O)C(=O)C3=C(O)c4c(O)cccc4[C@@](C)(O)C3CC12 (stereo not given in full) | inactive: 41.7%
9 | Cn1cc(C(=O)C(=O)N[C@H]2CN3CCC2CC3)c2ccccc21 | inactive: 2.55%
10 | C[C@@H]1OC(=O)[C@H]2C[C@H]3CCCC[C@@H]3[C@@H](/C=C/[C@H]3CCC[C@H](C)N3C)[C@@H]12 | inactive: 22.9%
11 | CNC(C)Cc1ccc2c(c1)OCO2 (stereo not given) | inactive: 37.1% [at 320 µM]
12 | CCC1(c2ccc(N)cc2)CCC(=O)NC1=O (stereo not given) | inactive
13 | CC[C@@H](CO)NC(=O)[C@H]1C=C2c3cccc4c3c(cn4C)C[C@H]2N(C)C1 | inactive: -3.33%
14 | C[C@H](Cc1ccc2c(c1)OC(C(=O)O)(C(=O)O)O2)NC[C@H](O)c1cccc(Cl)c1 | inactive: -8.24% [at 75.8 µM]
15 | CCCCCCCCCC(=O)O[C@H]1CC[C@H]2[C@@H]3CCC4=CC(=O)CC[C@]4(C)[C@H]3CC[C@]12C | inactive: 8.32%
16 | C[N+]1(C)CCN(c2ccccc2)CC1 | inactive
17 | ClC1=C(Cl)[C@]2(Cl)[C@@H]3[C@@H]4C[C@@H]([C@H]5O[C@@H]45)[C@@H]3[C@@]1(Cl)C2(Cl)Cl | inactive: 28.7% [at 320 µM]
18 | [H+].[H+].[Hg+2].[O-]B([O-])[O-].[c-]1ccccc1 | inactive: 13%
19 | CCOC(=O)[C@]12Cc3cc(C)ccc3[C@H]1N(Cc1ccccc1)C(=O)c1ccccc12 | inactive: 3.03%
20 | C[C@@H](N)[C@@H](O)c1ccccc1 | inactive: 15.7% [at 75.8 µM]
21 | NC(=O)COc1c(F)cc(SCCNS(=O)(=O)c2ccccc2)cc1F | inactive: 19.6% [at 75.8 µM]
22 | CCCN1CCC[C@H](c2cccc(O)c2)C1 | inactive
23 | COc1cc2nc(N(C)C)c(CNCCc3c[nH]c4ccccc34)cc2c(OC)c1OC | inactive: 14.4%
24 | COc1cc(CCN)cc(OC)c1OC | inactive: 16.7% [at 320 µM]
25 | COc1cccc2c1C13CC[N+]4(CC5CC5)CO[C@]1(CCC(=O)C3)C4C2 | inactive: 14.9%

Row | Compound | activity change, negative = inhibition
26 | CCCN1CCO[C@@H]2c3cc(O)ccc3OC[C@@H]21 | inactive: -19.1%
27 | C[C@@H]1O[C@@H](O[C@H]2C[C@@H](O)[C@]3(CO)[C@H]4[C@H](O)C[C@]5(C)[C@@H](C6=CC(=O)OC6)CC[C@]5(O)[C@@H]4CC[C@]3(O)C2)[C@H](O)[C@H](O)[C@H]1O | inactive
28 | Clc1cc(I)cc(Cl)c1NC1=NCCN1 | inactive: 14.9% [at 75.8 µM]
29 | CC1NCCOC1c1ccccc1 (stereo not given) | inactive: 21.8%
30 | C[C@@H](N)Cc1cnc[nH]1 | inactive
31 | COc1ccc2c3c([nH]c2c1)C(C)=NCC3 | inactive
32 | CCC(C)(C)c1ccc(O)cc1 | inactive: 5.01%
33 | CCCN1CCC[C@@H]2Cc3[nH]ncc3C[C@H]21 | inactive
34 | COc1ccc(/C=C/C(=O)N2CC3C[C@@H](C2)Cn2c3cccc2=O)cc1OC | inactive: -7.41%
35 | COc1ccc(CC2NC[C@H](O)[C@H]2OC(C)=O)cc1 (stereo not given in full) | inactive: 6.05%
36 | Cc1nc2ccccc2c(=O)n1-c1ccccc1Cl | inactive: 27.4% [at 320 µM]
37 | CC[C@H](C)[C@H](NC(=O)[C@H](CCCN=C(N)N)NC(=O)[C@H](CCCN=C(N)N)NC(=O)[C@H](CC(C)C)NC(=O)[C@H](Cc1ccccc1)NC(=O)CNC(=O)CNC(=O)[C@@H](N)Cc1ccc(O)cc1)C(=O)O | inactive: 26.7% [at 15.3 µM]
38 | CCCCC/C=C\C[C@@H](/C=C/C=C\C/C=C\CCCC(=O)O)OO | inactive: 27.2% [at 1.57 µM]
39 | O=C1CS[C@@H](c2ccccc2Cl)c2cc(Cl)ccc2N1 | inactive: -21.8%
40 | [N-]=[N+]=CC(=O)OC[C@H](N)C(=O)O | inactive: 18.3%
41 | CCN(CC)Cc1nccn1-c1ccc([N+](=O)[O-])cc1C(=O)c1ccccc1Cl | inactive: 4.4%
42 | C[C@@H](N)Cn1ccc2cc(F)c(Cl)cc21 | inactive: 14.3%
43 | Cc1nc(N)sc1CCN | inactive
44 | C#CCN1C(C)=C(C(=O)CCO)[C@@H](c2cccc(-n3oo3)c2)C(C(=O)OC)=C1C | inactive: -19.2%
45 | O=C(O)CCCCCCNC1c2ccccc2CCc2ccccc21 | inactive: -8.12%
46 | NCCCC[C@H](NC(=O)[C@H](Cc1ccccc1)NC(=O)[C@H](CCCN=C(N)N)NC(=O)[C@@H](N)Cc1ccc(O)cc1)C(N)=O | inactive: 38.3% [at 15.3 µM]
47 | NCCCP(=O)(O)CC1CCCCC1 | inactive
48 | C=C(C)C1Cc2c(ccc3c(=O)c4c(oc23)COc2cc(OC)c(OC)cc2-4)O1 (stereo not given) | inactive
49 | COc1ccc(Cc2nccc3cc(OC)c(OC)cc23)cc1OC | inactive
50 | CCCOc1ccc2[nH]cc(C3=CCNCC3)c2n1 | inactive: -2.18%

Row | Compound | activity change, negative = inhibition
51 | FC(F)OC(F)(F)C(F)Cl (stereo not given) | inactive: 4.83%
52 | C[C@H](CN1CCOCC1)C(C(=O)N1CCCC1)(c1ccccc1)c1ccccc1 | inactive: -2.9% [at 320 µM]
53 | CNCCc1c[nH]c2ccc(O)cc12 | inactive
54 | C[C@@]12CCC3C(CC[C@@H]4CC(O)CC[C@@]34C)C1CCC2O (stereo not given in full) | inactive: 18.9%
55 | C[C@@H]1[C@H]2Cc3ccc(O)cc3[C@]1(C)CCN2C | inactive: 3.01% [at 606 µM]
56 | NCCCP(=O)(O)O | inactive: -0.712% [at 75.8 µM]
57 | CCC1(CC)C(=O)C=CNC1=O | inactive: 14.7%
58 | C=C(C)C1CNC(C(=O)O)C1CC(=O)O (stereo not given) | inactive: 8.1%
59 | O=C(N/N=C/c1ccc([N+](=O)[O-])o1)c1cc([N+](=O)[O-])cc([N+](=O)[O-])c1O | inactive: -16.1%
60 | C[C@]12CC[C@H]3[C@@H](CC[C@@]45O[C@@H]4C(O)=C(C#N)C[C@]35C)[C@@H]1CC[C@@H]2O | inactive: 26.9%
61 | C[C@@]12CC(c3ccoc3)OC(=O)C1CC[C@@]1(C)C2C2C=C[C@@]1(O)C(=O)O2 (stereo not given in full) | inactive: 6.33%
62 | COC1=C[C@H]2[C@H]3Cc4ccc(OC)c(O)c4[C@@]2(CCN3C)CC1=O | inactive: -8.75%
63 | O=C(Oc1ccccc1)N1CCC2(CCCN(C(c3ccccc3)c3ccccc3)C2)CC1 | inactive: 5.57%
64 | O=C1CSC(c2ccccc2Cl)c2cc(Cl)ccc2N1 (stereo not given) | inactive: -3.6% [at 201 µM]
65 | NNC(=O)c1ccc(O)cc1 | inactive: 4.51% [at 75.8 µM]
66 | COC(=O)[C@@H](N)CCCN=C(N)N[N+](=O)[O-] | inactive
67 | CN1CCN=C(c2ccccc2)c2cc(Cl)ccc21 | inactive: 22.7%
68 | C[C@]1(O)CC[C@H]2[C@@H]3CCC4=CC(=O)CC[C@]4(C)[C@@]3(F)[C@@H](O)C[C@@]21C | inactive: 20.7%
69 | CCCC[C@H]1C(=O)O[C@H](C)[C@H](NC(=O)c2cccc(NC=O)c2OC)C(=O)O[C@@H](C)[C@@H]1OC(=O)CC(C)C | inactive: -5.92%
70 | CC(C)(C)NCC(O)c1cc(Cl)c(N)c(Cl)c1 (stereo not given) | inactive
71 | CC(C)[C@@]1(NC(=O)[C@H]2CC3c4cccc5[nH]cc(c45)C[C@H]3N(C)C2)O[C@@]2(O)C3CCCN3C(=O)[C@@H](Cc3ccccc3)N2C1=O (stereo not given in full) | inactive: -1.38%
72 | CC[C@]1(C2=NCCN2)Cc2ccccc2O1 | inactive: 7.54%
73 | Fc1ccc(C(OCCN2CCN(CCCc3ccccc3)CC2)c2ccc(F)cc2)cc1 | inactive
74 | N[C@@H](CCl)C(=O)O | inactive: 5.05% [at 75.8 µM]
75 | COc1cc2c(cc1OC)[C@@]13CCN4CC5=CCO[C@H]6CC(=O)N2[C@H]1[C@H]6[C@H]5C[C@H]43 | inactive: 23.7%

Row | Compound | activity change, negative = inhibition
76 | CCOCN(C(=O)CCl)c1c(C)cccc1CC | inactive: 14.4%
77 | C=C1[C@@H](C)[C@H]2[C@H](Cc3ccccc3)NC(=O)[C@]23[C@H](OC(C)=O)/C=C/[C@](C)(O)C(=O)[C@@H](C)C/C=C/[C@H]3[C@@H]1O | inactive: 23%
78 | CC(CN)CC(=O)O (stereo not given) | inactive: 26.5%
79 | C=C(C)[C@H]1Cc2c(ccc3c2O[C@@H]2COc4cc(OC)c(OC)cc4[C@@H]2C3=O)O1 | inactive
80 | COC(=O)C1=CCCN(C)C1 | inactive
81 | C=C(C)CN1CC[C@@]23c4c5ccc(O)c4O[C@H]2c2[nH]c4ccccc4c2C[C@]3(O)[C@@H]1C5 | inactive: -11.4%
82 | NCC(CC(=O)O)c1ccc(Cl)s1 (stereo not given) | inactive: 14.7%
83 | O=c1ccc2cc(O[C@H]3OC(CO)C(O)C(O)C3O)c(O)cc2o1 (stereo not given in full) | inactive
84 | O=C1/C(=C\c2ccccc2)C[C@@]2(O)[C@H]3Cc4ccc(O)c5c4[C@@]2(CCN3CC2CC2)[C@H]1O5 | inactive: 12.8%
85 | O=C(/C=C/c1ccc(Cl)cc1)N[C@@]12CCC(=O)[C@@H]3Oc4c(O)ccc5c4[C@@]31CCN(CC1CC1)C2C5 | inactive: 33.9%
86 | c1cc2cc(c1)C[n+]1ccc(c3ccccc31)NCc1ccc(cc1)CNc1cc[n+](c3ccccc13)C2 | inactive: 1.4%
87 | NC1=NC(=O)N2CC12 (stereo not given) | inactive: -6.51%
88 | CC(C)(c1ccc(OCC2CO2)cc1)c1ccc(OCC2CO2)cc1 (stereo not given) | inactive
89 | c1ccc(N2CCN(c3ccccc3)CC2)cc1 | inactive: -18.6%
90 | O=C(NC(=O)c1c(F)cccc1F)Nc1cc(Cl)c(OC(F)(F)C(F)C(F)(F)F)cc1Cl (stereo not given) | inactive
91 | NC[C@@H](CC(=O)O)c1ccc(Cl)cc1 | inactive: 9.47%
92 | CCOC(=O)c1cc2c(cn1)[nH]c1ccccc12 | inactive
93 | CNCC(=O)c1ccc(O)c(O)c1 | inactive: 4.7%
94 | C[C@]12CC[C@H]3[C@@H](CCC4=C(Cl)C(=O)CC[C@@]43C)[C@@H]1CC[C@@H]2O | inactive: 6.78%
95 | CC1=C2C3OC(=O)[C@H](C)[C@H]3CC[C@@]2(C)C=CC1=O (stereo not given in full) | inactive: 10.3%
96 | H-YPFVEPI-OH | inactive: 26.3% [at 15.3 µM]
97 | CC(C)CN1CC[C@@]2(CCCN(C(=O)Oc3ccccc3)C2)C1 | inactive: 13.3%
98 | NNC(N)=O | inactive: -9.96% [at 75.8 µM]
99 | ClC1=C(Cl)[C@]2(Cl)[C@@H]3[C@H]4C[C@H]([C@@H]5O[C@H]45)[C@@H]3[C@@]1(Cl)C2(Cl)Cl | inactive: 9.22%
100 | CC1(C)N(O)C(c2ccc(C(=O)O)cc2)=[N+]([O-])C1(C)C | inactive: 16.1%
